± gives the standard deviation of the averaged measurements. The list shows a part of the results.
test system: PfAP2-I AP2 domain 3 (GST-tagged); experiment: gcPBM binding intensity (ln(normalized median fluorescence intensity)); higher = stronger DNA binding
Procedure, shortened: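 In this array assay, P. falciparum DNA-binding domains with a GST tag, expressed in E. coli, were applied for 1 h to primer-extended double-stranded 36-bp intergenic genomic probes and negative controls on an Agilent 4 × 180k array. Bound protein was visualised with Alexa488 anti-GST antibody at 488 nm. Binding intensity is the highest Masliner-normalised natural-log median intensity across replicate spots of either probe orientation.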

Sequence	gcPBM binding intensity (ln)
TGATTAAATAAATATATATATTTATATATTATACAG [CACACA_negctrl_site1596]	7.45 ± 0.44
GCTCTATCAAAAAAATGTACACATATTATCATTCAT [XGTACX_site143]	8.08 ± 0.44
CAAATAAATATTAAAAGTACACACAGATACACTAAT [XGTACX_site3749]	7.93 ± 0.42
TATATATATATATATGTGCACTGGACATATTTTTAT [GTGCAC_site9721]	10.09 ± 0.099
ATTTTTATTTTTATTTGTACTTATATATTCTTAAGC [XGTACX_site4122]	7.84 ± 0.54
TTTTTAAATATAAACAAAAAAAAAAAATATATCAAT [XGTACX_negctrl_site328]	7.59 ± 0.59
AATACCCAAGGACACACACACACATATATATATATA [CACACA_site8345]	9.38 ± 0.11
ATAATATAAATACAAACACACAATTGTGTCCACATT [CACACA_site6920]	7.97 ± 0.4
AAAAATAGACAAAAGAGTACAAGAAAAAAAGGGTTC [XGTACX_site7843]	8.17 ± 0.67
ATATTCCTACATACAACACACGACGTTCTCATAAGA [CACACA_site231]	8.06 ± 0.66
GGAAAATGAAAAACAAAAAAAAAAAAAAAAAAATGA [TGCATGCA_negctrl_site432]	7.68 ± 0.59
TCTTTTTAGATATATACACACCGTGTCTACCTATAC [CACACA_site7551]	7.68 ± 0.8
ACATCTGTTATTTGTGGTACTAAAAAAATATATAGT [XGTACX_site8322]	8 ± 0.41
TTACAATTAATAAAGTGTACTTAACTATTATATATA [XGTACX_site481]	7.56 ± 0.2
TTTTAAAGTTGTGAGCTTCATTTTTATTTATATGTA [CACACA_negctrl_site1505]	7.43 ± 0.61
ATATATATATATGTCTGTACATAAAAAATAATAAAT [XGTACX_site3122]	9.29 ± 0.099
TTGATCTATAATAATACACACTTACATAATTAATTA [CACACA_site6273]	7.83 ± 0.51
GTCATATTAATATGTACACACATATTTATATTTATA [CACACA_site6798]	8.11 ± 0.028
TTTTTACTATTTATATGACTAAAAATATATTGAATA [CACACA_negctrl_site188]	7.49 ± 0.48
TAAATTAATAAACAAGTGCATATATATATATATATA	10 ± 0.49
CAATTTATTTTTATTACACACTATCCAAGTAATTTC [CACACA_site7402]	7.83 ± 0.64
TTTTATGTAACATCACGTACTTATATTTAAGTATTC [XGTACX_site7459]	8 ± 0.45

Sequence	gcPBM binding intensity (ln)
CAAGCACACGGACACACACACACACGCGCACGCACA [CACACA_site6307]	8.37 ± 0.48
AAATATATCATACAAAGTACTTGGAATTAATATATA [XGTACX_site8907]	7.31 ± 0.35
AATATAATATAATGCACACATAAAACAAAAAAAAAA [CACACA_site3012]	11 ± 0.86
TAATTTTTCCAACTTTGTACAGATATATTAATAAAA [XGTACX_site7856]	7.74 ± 0.4
TCTTTTAAATAACAACATAAATAAATAAATAAATAA [GTGCAC_negctrl_site319]	8.42 ± 0.71
GTTGATACATGAAGCTGTACATAATATTTGTCATTT [XGTACX_site8628]	7.78 ± 0.58
TAAAATTAATTTCTGTTGCACTTATTATTAATTAAC	9.46 ± 0.16
TTTTTTTTTTTTTGCACACACCATATTTATAGAAAT [CACACA_site5772]	9.44 ± 0.38
ATATTATACCCGTGTACACATTATAACCATATATAA [CACACA_site5933]	9.44 ± 0.46
TATATGTATAGAAAATGTACATATAAATATATATAT [XGTACX_site3420]	8.7 ± 0.2
AATTAAAATAGTAATACACACTTCATAGGAAATGAT [CACACA_site5045]	7.62 ± 0.46
TATGTATCAAATAAATGTACATATATATATATATAT [XGTACX_site2189]	9.26 ± 0.38
AAATTTTTTATGAACACACAAATACACGCACTCAAA [CACACA_site7286]	9.045 ± 0.049
TAAAATATATAAAACTGTACATTTTAAAGGCACAAC [XGTACX_site8342]	9.72 ± 0.33
AATAATAAAATAAAGGCATGCACAATATGCTATAAA [TGCATGCA_site645]	8.23 ± 0.87
CCTTTATTTTATATGTGTACTAAATTGTATATATAT [XGTACX_site8717]	8.46 ± 0.45
ATGTTTTATAAAAGGCGTACACATATGCTTAAGTAA [XGTACX_site6232]	8.18 ± 0.55
CTGAAGGAAAAAGAAAGTACTTTTTTTTTTTTGAAG [XGTACX_site5973]	7.57 ± 0.48
AAAAAAAAAATATCATGTACAAATATAATAAAATTT [XGTACX_site3896]	7.46 ± 0.46
TATAGCAAAAAATTTACACACATGTTTTTTCTATAC [CACACA_site325]	8 ± 0.49
GGCATTTTATGAAGTAGTACCATAAATATTAAAGAT [XGTACX_site5287]	8.07 ± 0.52
AAAAAAAATTCCAGTACACACAATAATACTAAAAAT [CACACA_site2801]	7.84 ± 0.39

Source: the supplement of paper PMC11417369
